Results taken from the supplement of paper PMC12423691.
The list shows a part of the results. Binding of human transcription factors and regulators to the viral nucleoprotein by AlphaScreen, crude cell-free proteins, amounts not normalised, one pass. Fold of the Venus control; higher = more signal. No active / inactive call. Single-pass screen; sequences are the whole Swiss-Prot entries looked up by name.

B1: CREB3, O43889 (protein)
chain: MELELDAGDQDLLAFLLEESGDLGTAPDEAVRAPLDWALPLSEVPSDWEVDDLLCSLLSPPASLNILSSSNPCLVHHDHTYSLPRETVSMDLESESCRKEGTQMTPQHMEELAEQEIARLVLTDEEKSLLEKEGLILPETLPLTKTEEQILKRVRRKIRNKRSAQESRRKKKVYVGGLESRVLKYTAQNMELQNKVQLLEEQNLSLLDQLRKLQAMVIEISNKTSSSSTCILVLLVSFCLLLVPAMYSSDTRGSLPAEHGVLSRQLRALPSEDPYQLELPALQSEVPKDSTHQWLDGSDCVLQAPGNTSCLLHYMPQAPSAEPPLEWPFPDLFSEPLCRGPILPLQANLTRKGGWLPTGSPSVILQDRYSG
B2: TCF25, Q9BQ70 (protein)
chain: MSRRALRRLRGEQRGQEPLGPGALHFDLRDDDDAEEEGPKRELGVRRPGGAGKEGVRVNNRFELINIDDLEDDPVVNGERSGCALTDAVAPGNKGRGQRGNTESKTDGDDTETVPSEQSHASGKLRKKKKKQKNKKSSTGEASENGLEDIDRILERIEDSTGLNRPGPAPLSSRKHVLYVEHRHLNPDTELKRYFGARAILGEQRPRQRQRVYPKCTWLTTPKSTWPRYSKPGLSMRLLESKKGLSFFAFEHSEEYQQAQHKFLVAVESMEPNNIVVLLQTSPYHVDSLLQLSDACRFQEDQEMARDLVERALYSMECAFHPLFSLTSGACRLDYRRPENRSFYLALYKQMSFLEKRGCPRTALEYCKLILSLEPDEDPLCMLLLIDHLALRARNYEYLIRLFQEWEAHRNLSQLPNFAFSVPLAYFLLSQQTDLPECEQSSARQKASLLIQQALTMFPGVLLPLLESCSVRPDASVSSHRFFGPNAEISQPPALSQLVNLYLGRSHFLWKEPATMSWLEENVHEVLQAVDAGDPAVEACENRRKVLYQRAPRNIHRHVILSEIKEAVAALPPDVTTQSVMGFDPLPPSDTIYSYVRPERLSPISHGNTIALFFRSLLPNYTMEGERPEEGVAGGLNRNQGLNRLMLAVRDMMANFHLNDLEAPHEDDAEGEGEWD
B3: ATOH8, Q96SQ7 (protein)
chain: MKHIPVLEDGPWKTVCVKELNGLKKLKRKGKEPARRANGYKTFRLDLEAPEPRAVATNGLRDRTHRLQPVPVPVPVPVPVAPAVPPRGGTDTAGERGGSRAPEVSDARKRCFALGAVGPGLPTPPPPPPPAPQSQAPGGPEAQPFREPGLRPRILLCAPPARPAPSAPPAPPAPPESTVRPAPPTRPGESSYSSISHVIYNNHQDSSASPRKRPGEATAASSEIKALQQTRRLLANARERTRVHTISAAFEALRKQVPCYSYGQKLSKLAILRIACNYILSLARLADLDYSADHSNLSFSECVQRCTRTLQAEGRAKKRKE
B4: TBX22, Q9Y458 (protein)
chain: MALSSRARAFSVEALVGRPSKRKLQDPIQAEQPELREKKGGEEEEERRSSAAGKSEPLEKQPKTEPSTSASSGCGSDSGYGNSSESLEEKDIQMELQGSELWKRFHDIGTEMIITKAGRRMFPSVRVKVKGLDPGKQYHVAIDVVPVDSKRYRYVYHSSQWMVAGNTDHLCIIPRFYVHPDSPCSGETWMRQIISFDRMKLTNNEMDDKGHIILQSMHKYKPRVHVIEQGSSVDLSQIQSLPTEGVKTFSFKETEFTTVTAYQNQQITKLKIERNPFAKGFRDTGRNRGVLDGLLETYPWRPSFTLDFKTFGADTQSGSSGSSPVTSSGGAPSPLNSLLSPLCFSPMFHLPTSSLGMPCPEAYLPNVNLPLCYKICPTNFWQQQPLVLPAPERLASSNSSQSLAPLMMEVPMLSSLGVTNSKSGSSEDSSDQYLQAPNSTNQMLYGLQSPGNIFLPNSITPEALSCSFHPSYDFYRYNFSMPSRLISGSNHLKVNDDSQVSFGEGKCNHVHWYPAINHYL
B5: TBX19, O60806 (protein)
chain: MAMSELGTRKPSDGTVSHLLNVVESELQAGREKGDPTEKQLQIILEDAPLWQRFKEVTNEMIVTKNGRRMFPVLKISVTGLDPNAMYSLLLDFVPTDSHRWKYVNGEWVPAGKPEVSSHSCVYIHPDSPNFGAHWMKAPISFSKVKLTNKLNGGGQIMLNSLHKYEPQVHIVRVGSAHRMVTNCSFPETQFIAVTAYQNEEITALKIKYNPFAKAFLDAKERNHLRDVPEAISESQHVTYSHLGGWIFSNPDGVCTAGNSNYQYAAPLPLPAPHTHHGCEHYSGLRGHRQAPYPSAYMHRNHSPSVNLIESSSNNLQVFSGPDSWTSLSSTPHASILSVPHTNGPINPGPSPYPCLWTISNGAGGPSGPGPEVHASTPGAFLLGNPAVTSPPSVLSTQAPTSAGVEVLGEPSLTSIAVSTWTAVASHPFAGWGGPGAGGHHSPSSLDG
B6: POU2F3, Q9UKI9 (protein)
chain: MVNLESMHTDIKMSGDVADSTDARSTLSQVEPGNDRNGLDFNRQIKTEDLSDSLQQTLSHRPCHLSQGPAMMSGNQMSGLNASPCQDMASLHPLQQLVLVPGHLQSVSQFLLSQTQPGQQGLQPNLLPFPQQQSGLLLPQTGPGLASQAFGHPGLPGSSLEPHLEASQHLPVPKHLPSSGGADEPSDLEELEKFAKTFKQRRIKLGFTQGDVGLAMGKLYGNDFSQTTISRFEALNLSFKNMCKLKPLLEKWLNDAESSPSDPSVSTPSSYPSLSEVFGRKRKKRTSIETNIRLTLEKRFQDNPKPSSEEISMIAEQLSMEKEVVRVWFCNRRQKEKRINCPVATPIKPPVYNSRLVSPSGSLGPLSVPPVHSTMPGTVTSSCSPGNNSRPSSPGSGLHASSPTASQNNSKAAVNSASSFNSSGSWYRWNHSTYLH
B7: ZEB1, P37275 (protein)
chain: MADGPRCKRRKQANPRRNNVTNYNTVVETNSDSDDEDKLHIVEEESVTDAADCEGVPEDDLPTDQTVLPGRSSEREGNAKNCWEDDRKEGQEILGPEAQADEAGCTVKDDECESDAENEQNHDPNVEEFLQQQDTAVIFPEAPEEDQRQGTPEASGHDENGTPDAFSQLLTCPYCDRGYKRFTSLKEHIKYRHEKNEDNFSCSLCSYTFAYRTQLERHMTSHKSGRDQRHVTQSGCNRKFKCTECGKAFKYKHHLKEHLRIHSGEKPYECPNCKKRFSHSGSYSSHISSKKCISLIPVNGRPRTGLKTSQCSSPSLSASPGSPTRPQIRQKIENKPLQEQLSVNQIKTEPVDYEFKPIVVASGINCSTPLQNGVFTGGGPLQATSSPQGMVQAVVLPTVGLVSPISINLSDIQNVLKVAVDGNVIRQVLENNQANLASKEQETINASPIQQGGHSVISAISLPLVDQDGTTKIIINYSLEQPSQLQVVPQNLKKENPVATNSCKSEKLPEDLTVKSEKDKSFEGGVNDSTCLLCDDCPGDINALPELKHYDLKQPTQPPPLPAAEAEKPESSVSSATGDGNLSPSQPPLKNLLSLLKAYYALNAQPSAEELSKIADSVNLPLDVVKKWFEKMQAGQISVQSSEPSSPEPGKVNIPAKNNDQPQSANANEPQDSTVNLQSPLKMTNSPVLPVGSTTNGSRSSTPSPSPLNLSSSRNTQGYLYTAEGAQEEPQVEPLDLSLPKQQGELLERSTITSVYQNSVYSVQEEPLNLSCAKKEPQKDSCVTDSEPVVNVIPPSANPINIAIPTVTAQLPTIVAIADQNSVPCLRALAANKQTILIPQVAYTYSTTVSPAVQEPPLKVIQPNGNQDERQDTSSEGVSNVEDQNDSDSTPPKKKMRKTENGMYACDLCDKIFQKSSSLLRHKYEHTGKRPHECGICKKAFKHKHHLIEHMRLHSGEKPYQCDKCGKRFSHSGSYSQHMNHRYSYCKREAEERDSTEQEEAGPEILSNEHVGARASPSQGDSDERESLTREEDEDSEKEEEEEDKEMEELQEEKECEKPQGDEEEEEEEEEVEEEEVEEAENEGEEAKTEGLMKDDRAESQASSLGQKVGESSEQVSEEKTNEA
B8: SOX10, P56693 (protein)
chain: MAEEQDLSEVELSPVGSEEPRCLSPGSAPSLGPDGGGGGSGLRASPGPGELGKVKKEQQDGEADDDKFPVCIREAVSQVLSGYDWTLVPMPVRVNGASKSKPHVKRPMNAFMVWAQAARRKLADQYPHLHNAELSKTLGKLWRLLNESDKRPFIEEAERLRMQHKKDHPDYKYQPRRRKNGKAAQGEAECPGGEAEQGGTAAIQAHYKSAHLDHRHPGEGSPMSDGNPEHPSGQSHGPPTPPTTPKTELQSGKADPKRDGRSMGEGGKPHIDFGNVDIGEISHEVMSNMETFDVAELDQYLPPNGHPGHVSSYSAAGYGLGSALAVASGHSAWISKPPGVALPTVSPPGVDAKAQVKTETAGPQGPPHYTDQPSTSQIAYTSLSLPHYGSAFPSISRPQFDYSDHQPSGPYYGHSGQASGLYSAFSYMGPSQRPLYTAISDPSPSGPQSHSPTHWEQPVYTTLSRP
B9: GMEB1, Q9Y692 (protein)
chain: MANAEVSVPVGDVVVVPTEGNEGENPEDTKTQVILQLQPVQQGLFIDGHFYNRIYEAGSENNTAVVAVETHTIHKIEEGIDTGTIEANEDMEIAYPITCGESKAILLWKKFVCPGINVKCVKFNDQLISPKHFVHLAGKSTLKDWKRAIRLGGIMLRKMMDSGQIDFYQHDKVCSNTCRSTKFDLLISSARAPVPGQQTSVVQTPTSADGSITQIAISEESMEEAGLEWNSALTAAVTMATEEGVKKDSEEISEDTLMFWKGIADVGLMEEVVCNIQKEIEELLRGVQQRLIQAPFQVTDAAVLNNVAHTFGLMDTVKKVLDNRRNQVEQGEEQFLYTLTDLERQLEEQKKQGQDHRLKSQTVQNVVLMPVSTPKPPKRPRLQRPASTTVLSPSPPVQQPQFTVISPITITPVGQSFSMGNIPVATLSQGSSPVTVHTLPSGPQLFRYATVVSSAKSSSPDTVTIHPSSSLALLSSTAMQDGSTLGNMTTMVSPVELVAMESGLTSAIQAVESTSEDGQTIIEIDPAPDPEAEDTEGKAVILETELRTEEKVVAEMEEHQHQVHNVEIVVLED

Each binder was assayed against nucleoprotein N of Crimean-Congo hemorrhagic fever virus (assay: AlphaScreen luminescence signal relative to Venus negative control (fold); higher = stronger binding to CCHFV N).
Protocol: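 AlphaScreen binding of cell-free made, FLAG-GST-tagged human transcription factors and regulators (crude translation products) to biotinylated N protein; signal as fold of the FLAG-GST-Venus control. One pass.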

| Binder | AlphaScreen luminescence signal |
| --- | --- |
| B1 | 4.7 |
| B2 | 9.58 |
| B3 | 7.12 |
| B4 | 2.09 |
| B5 | 1.67 |
| B6 | 2.74 |
| B7 | 2 |
| B8 | 2.42 |
| B9 | 1.72 |
